Laboratory results taken from paper PMC10668032.
The other results are listed elsewhere or left out. At the low end of the ranking, values are background and their order means little.

Molecular target: SIX1-Q177R homeodomain (UniProt Q15475)
Test: universal protein binding microarray
Conditions: Universal all-10-mer PBM (8x60K, AMADID 030236), 300 nM GST-tagged protein, Alexa Fluor 488 anti-GST; buffer, salt, pH and temperature not stated; high values mean tight binding; most listed sequences are background and not binding sites; double strand, one strand shown

Sequence | binding signal
CCGAATTA | 0.0295 E-score
CCTATAGC | -0.0348 E-score
AATGATCG | -0.189 E-score
AACCCCCC | 0.308 E-score
GCGAGGAC | -0.0768 E-score
CCTCGCTA | -0.0181 E-score
AATATATC | -0.105 E-score
CAAACGGG | 0.0374 E-score
AATTTTTC | -0.0225 E-score
GGAGCCGA | 0.00907 E-score
AATGGTAG | -0.0146 E-score
ACACGTGA | 0.34 E-score
AAATGAGG | -0.228 E-score
ACGTTGGA | -0.0118 E-score
CGTCGACG | -0.202 E-score
ACGCTCCA | -0.0758 E-score
TAAGAGCA | 0.0883 E-score
CTACGTAG | -0.195 E-score
ACGTGGAA | -0.0611 E-score
GATGAGAA | -0.182 E-score
CAGCTTGA | -0.0231 E-score
GCTGCTTA | -0.0529 E-score
CGTCAAAC | 0.0535 E-score
TCACCGAA | 0.125 E-score
AGGGTGAC | 0.035 E-score

Sequence | binding signal
ACACGTCG | 0.323 E-score
CTCATTCA | -0.144 E-score
AGATGTAA | -0.147 E-score
ATGGCGGG | 0.118 E-score
CCAACCTC | -0.029 E-score
GCTTGCGA | -0.15 E-score
GCGGCAGC | -0.284 E-score
AATGGCGG | -0.083 E-score
CAAGACGC | -0.0252 E-score
ACAGATAA | -0.039 E-score
GAGCCCAA | -0.283 E-score
AGTCCGCG | -0.145 E-score
GGTGGCAA | -0.151 E-score
GGATATGA | 0.0813 E-score
CAAACGCA | -0.0779 E-score
AAACGGGT | 0.136 E-score
AGTGATAA | -0.236 E-score
CCGCACTA | 0.13 E-score
ACCTTTGC | 0.043 E-score
CTCCTCAG | -0.012 E-score
AGAATGTA | -0.16 E-score
CACGTCAC | 0.16 E-score
AGGGTTTC | 0.0175 E-score
GAGAAGGA | -0.168 E-score
ATGGTCTG | -0.132 E-score

Sequence | binding signal
AAACCATT | -0.178 E-score
GCAGGCGA | -0.265 E-score
ATACACGA | 0.38 E-score
GCAGGACA | 0.00732 E-score
GTAGAGCA | 0.124 E-score
ATAGGCAA | -0.228 E-score
GCCCCGGA | 0.00914 E-score
AGCTGGGG | 0.118 E-score
TAGCCGAA | -0.0879 E-score
ATAGTTGA | -0.181 E-score
AGTTGGAA | -0.167 E-score
ATGGACCC | 0.144 E-score
AAGAGTCA | 0.123 E-score
CCACCAGG | 0.0469 E-score
CTGGGTAA | -0.0232 E-score
ATCCGCTA | -0.104 E-score
ATAAACTA | -0.049 E-score
ATATCTCC | 0.00536 E-score
GTGATCTA | -0.0668 E-score
ACAAGGAT | 0.0765 E-score
GGTGTCAA | 0.49 E-score
CGGTCTTC | -0.168 E-score
GTACTCAA | -0.0267 E-score
TGAACTCA | -0.11 E-score
GTAATTGA | 0.0743 E-score

Sequence | binding signal
GCATAACA | 0.162 E-score
AGGCGTAC | 0.221 E-score
ACCTTATG | 0.134 E-score
ACCGCAAC | 0.1 E-score
CAGCCTGA | -0.0835 E-score
ACCAGGGC | 0.0523 E-score
CGTTAGAC | -0.0103 E-score
AATTCTGG | -0.117 E-score
GCAATAGC | 0.0186 E-score
AAAGCATT | -0.0558 E-score
CTCTGATA | -0.0281 E-score
ATAGTAAG | -0.0952 E-score
CACTCTGG | 0.187 E-score
AGGCGTTA | -0.00583 E-score
CACTTTAA | 0.0809 E-score
TCGTGAGA | -0.136 E-score
ACATGCGT | -0.23 E-score
GCATGACA | 0.115 E-score
CTCGTGGC | -0.234 E-score
CGCGACCC | 0.169 E-score
GCAAGTAA | -0.149 E-score
TCAATTAA | -0.0664 E-score
ATACGCGA | 0.151 E-score
GACTCCCA | 0.067 E-score
AGCGGTAG | -0.134 E-score

Sequence | binding signal
CATATAAG | 0.00292 E-score
ACATCTAG | -0.149 E-score
ACACTGGG | 0.412 E-score
CATATTAG | -0.0393 E-score
GCCAAATA | -0.166 E-score
GGCGCAAC | -0.0717 E-score
AAAAACCT | -0.0787 E-score
CAGAACTC | -0.0316 E-score
ACCAGGTA | 0.241 E-score
AGGGTCGC | -0.014 E-score
GTGATAGA | 0.0102 E-score
AGTTAGTC | -0.0914 E-score
AATGGCGT | 0.0566 E-score
AGGTCTCC | -0.142 E-score
ATTGCAAA | -0.239 E-score
CGCTTGTA | 0.00364 E-score
CGTAGTAG | 0.0294 E-score
ATTTCTAC | -0.103 E-score
CGAGAACA | 0.0262 E-score
AACGTTGC | -0.268 E-score
GCGCGAGA | -0.117 E-score
GGCAAGAC | 0.0104 E-score
ATACTATC | -0.0242 E-score
AGGAACAA | -0.224 E-score
GATCACCA | -0.0262 E-score

Sequence | binding signal
AGTGCAGC | -0.038 E-score
AGGCTAAT | -0.162 E-score
GTTCACTA | -0.166 E-score
GAGTCAGA | 0.21 E-score
GCTACAGC | -0.282 E-score
AAATTCCA | -0.298 E-score
GTTGTGTA | 0.255 E-score
CACTTGTA | 0.149 E-score
CAAAGACA | -0.0206 E-score
AGGTATCC | 0.344 E-score
CCCAGCAC | 0.0287 E-score
AATCGGGT | 0.0756 E-score
ACGTGCAC | 0.142 E-score
CCAGCACC | 0.153 E-score
GGCCGCGA | -0.271 E-score
GAGCTGAC | 0.0373 E-score
ATAAAGCG | -0.0589 E-score
CATCAACC | -0.0973 E-score
CTGAAGCA | -0.145 E-score
CGGTCTGA | -0.223 E-score
AGGAGCCG | -0.0765 E-score
AATAGGCC | -0.102 E-score
CTGAACAA | -0.0629 E-score
GAAGATAC | 0.16 E-score
CTGGGACA | 0.0675 E-score

Sequence | binding signal
AGATCTGA | -0.0204 E-score
ATTGTGGC | -0.124 E-score
CAGGCGCA | -0.128 E-score
AACTAGTC | -0.0563 E-score
ACATACCT | 0.0077 E-score
GAAGCCGC | -0.206 E-score
CTGCAAGC | -0.0586 E-score
CAAAACAC | 0.321 E-score
ATACGTGG | -0.17 E-score
GGTCGTTA | -0.00188 E-score
CTCTTCAC | -0.0383 E-score
ATCGAATG | -0.168 E-score
GTCCGGAA | -0.0289 E-score
ATAAAACC | -0.0191 E-score
CAACTTCG | -0.135 E-score
ATGACCGC | -0.0384 E-score
CTATTCCA | -0.114 E-score
CCGTATTA | 0.141 E-score
CAGGAAAC | -0.158 E-score
GGGGTAGA | 0.194 E-score
GGCCCGCA | -0.169 E-score
CATCCCCA | -0.15 E-score
